Our source for the binding signal values is paper PMC7819943, “Rice protein-binding microarrays: a tool to detect cis-acting elements near promoter regions in rice”.

The list shows a part of the results.

For this assay, the target named is T1, OsWOX13 (Oryza sativa, UniProt Q5QMM3 1-267).
T1 sequence: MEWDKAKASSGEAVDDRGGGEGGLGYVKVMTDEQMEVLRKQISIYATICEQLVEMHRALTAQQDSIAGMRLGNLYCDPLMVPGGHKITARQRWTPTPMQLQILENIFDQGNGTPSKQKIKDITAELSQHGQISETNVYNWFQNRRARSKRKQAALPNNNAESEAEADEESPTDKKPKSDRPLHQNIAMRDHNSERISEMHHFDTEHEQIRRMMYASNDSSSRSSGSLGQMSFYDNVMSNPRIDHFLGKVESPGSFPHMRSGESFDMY
In words: protein-binding microarray (RPBM); PBS, 2% BSA, 51.3 ng/ul salmon testes DNA, 50 uM zinc acetate, 200 nM TF, 25 C, 1 h; high values mean tight binding. The following applies: protein: recombinant; tags: N-terminal polyhistidine and DsRed monomer fusion (pET32a); label: CyDye5-dUTP incorporated in the synthesized complementary strand; 3' TTTTT single-stranded linker to array surface; dsDNA, one strand shown. A digest of the protocol:
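Transcription factors were made in E. coli BL21-CodonPlus as N-terminal fusions to a polyhistidine tag and DsRed, then purified on Ni–NTA. After primer extension with Cy5-dUTP and blocking with 2% BSA, a custom Agilent array was exposed for 1 h at 25 °C to 200 nM protein in PBS, 2% BSA, salmon testes DNA and 50 µM zinc acetate. Washed arrays were scanned on an Axon 4000B, and the binding signal is per-feature fluorescence intensity in arbitrary units.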
As for “TTAAACATCAAATCTAAGCTAATCTACTCCAGTTGGTAATCGGAGTCACCTAGTGCAG”, the binding signal is 4100 fluorescence intensity (a.u.).

With “ATAAATAGAGAGATTGTCTCTGTCACTGGTTGTGTGTGTGCGGAGTCACCTAGTGCAG”, the binding signal was 17600 fluorescence intensity (a.u.).

Consider “CAATGTAACTAATTTAGTGTTGTAGATGTTACTATATTTGCGGAGTCACCTAGTGCAG”, for which the binding signal was 5290 fluorescence intensity (a.u.). For “ATATATATATATATATATATATATCATCAATCTTTAGTTCCGGAGTCACCTAGTGCAG”, the binding signal was 8990 fluorescence intensity (a.u.). The figure for “AGTCAGATTTTAAATTTGTTCGCTTTTGAAAATATAGGAGCGGAGTCACCTAGTGCAG” is 4190 fluorescence intensity (a.u.); for “CTGTGAAACTAATTTGATTCACTGTTAGGGAGTACTTCCCCGGAGTCACCTAGTGCAG” it is 15400 fluorescence intensity (a.u.); for “GTCGAATAGATTACATAATTTCAGATTTAAGCCAAGCATGCGGAGTCACCTAGTGCAG” it is 16600 fluorescence intensity (a.u.).

For “ATATCATAATTTGAATCGTCATGTATTTGTGTGCACGTACCGGAGTCACCTAGTGCAG”, the binding signal is 7860 fluorescence intensity (a.u.). Then “GACAGATTGCCAGTTAGCCGGCTGATATAGTTCTTGATAACGGAGTCACCTAGTGCAG”, with 37900 fluorescence intensity (a.u.); and “TTCCAGACATTAAACTCACTAATTATTGTCCTTTAGCATACGGAGTCACCTAGTGCAG”, with 4340 fluorescence intensity (a.u.). Regarding “GCTCTAATCATTGATGACATATATAAGCTTGACTTGGTCACGGAGTCACCTAGTGCAG”, the binding signal was 26300 fluorescence intensity (a.u.). On to “ATTAAACCGACAAATTTTAATCAAACCTGATGAACAAATCCGGAGTCACCTAGTGCAG”, for which the binding signal is 6940 fluorescence intensity (a.u.). As for “CTTTATTGATTGAGAGGAACTATCTACCTCTGTAATGACACGGAGTCACCTAGTGCAG”, the binding signal is 39200 fluorescence intensity (a.u.). Take “ATTTAACAAATTTTAAGTAAAATCATATGTAAAACATAGACGGAGTCACCTAGTGCAG”: the binding signal is 10800 fluorescence intensity (a.u.). Regarding “GTATAATAATAATAAATTAATTAAAGGACTGTATGTAAAACGGAGTCACCTAGTGCAG”, the binding signal is 10000 fluorescence intensity (a.u.).

On to “CAAATTGCGGTAAGCCCTAATTAACAGTGGTAGGAACATTCGGAGTCACCTAGTGCAG”, for which the binding signal is 3180 fluorescence intensity (a.u.).

Consider “TTAACTCGATTGTGGGCTTAATTAGGAAACTGTCCTCTTCCGGAGTCACCTAGTGCAG”, for which the binding signal is 8670 fluorescence intensity (a.u.). “ACCATATATTGATAGTGTACTATATGTTTATCGATAACTACGGAGTCACCTAGTGCAG”: the binding signal was 4010 fluorescence intensity (a.u.). Regarding “AGCTTAATTAGCTCTAGAAGAAGAAGAAGAAGAAGAAGAACGGAGTCACCTAGTGCAG”, the binding signal is 9290 fluorescence intensity (a.u.).

For “AGGCTACATGAGGGAAATTAATTGAGACCACTTGTTCTGTCGGAGTCACCTAGTGCAG”, the binding signal was 6750 fluorescence intensity (a.u.). For “CTCTGACTGCCCTCGCTAATCCAATTTCCGCATGTTCGTGCGGAGTCACCTAGTGCAG”, the binding signal is 8930 fluorescence intensity (a.u.). For the sequence “ATAATAGATGCACTTATTAATTCCTTAACTCCAATATCTCCGGAGTCACCTAGTGCAG”, the binding signal was 3370 fluorescence intensity (a.u.). For “GGACTAATTAGGCTCAAAAGACTCGTCTCGAGATTTCTATCGGAGTCACCTAGTGCAG”, the binding signal is 29600 fluorescence intensity (a.u.). Then “GGTGGTAGATTAGATTCCAGCTGATCCAATCTGGTCCGGGCGGAGTCACCTAGTGCAG”, with 7930 fluorescence intensity (a.u.); and “CATCCATCAGTGATGTATGGATTTCCATGATACCCAAGAGCGGAGTCACCTAGTGCAG”, with 4360 fluorescence intensity (a.u.); and “TATAATAGATTCCCTCTCTAAGAAATATCATAAAGACGGGCGGAGTCACCTAGTGCAG”, with 3880 fluorescence intensity (a.u.). For “TTTTGCCTTCATGATTGATATCTATATGTATATATAAAGACGGAGTCACCTAGTGCAG”, the binding signal is 12000 fluorescence intensity (a.u.). The figure for “TTTTGAGGAGGAATTTGATTGAAAGGATTTGGATTCGGAACGGAGTCACCTAGTGCAG” is 16900 fluorescence intensity (a.u.). As to “TGGAGATTGCTTACACTGTTACGCAGTTAACAAAACTAGCCGGAGTCACCTAGTGCAG”, the binding signal is 5570 fluorescence intensity (a.u.). Then “ATATATATATATATATATATATATATATATATGATGTGCGCGGAGTCACCTAGTGCAG”, with 17800 fluorescence intensity (a.u.); and “ATAGATGATAGGAATATTTCCCCTACTTGCTAAATGGAATCGGAGTCACCTAGTGCAG”, with 12100 fluorescence intensity (a.u.). Take “GAAATAAATTTTGGATTGGCTATGTTAATATGATATGACCCGGAGTCACCTAGTGCAG”: the binding signal was 25900 fluorescence intensity (a.u.). With “TACTCTGCCAATCTAAATTAATGATGTATGATATGGTCTCCGGAGTCACCTAGTGCAG”, the binding signal is 26200 fluorescence intensity (a.u.). On to “TAAAAGAAATATTTGGCTAATTGACAAACGTAAAATTGGCCGGAGTCACCTAGTGCAG”, for which the binding signal was 25700 fluorescence intensity (a.u.). “AGTAATTGTGTAATTTTCACGATATCCGTGAGGTACAGTACGGAGTCACCTAGTGCAG”: the binding signal was 17000 fluorescence intensity (a.u.). As to “CTGCTTAATTGCTCGGTTAATCCCTGCAAGGGGAGTAGAACGGAGTCACCTAGTGCAG”, the binding signal was 17100 fluorescence intensity (a.u.).

Consider “TTAATTTTAATTTTCTAATAAGCCAAATAAGCCATTTTGGCGGAGTCACCTAGTGCAG”, for which the binding signal is 13700 fluorescence intensity (a.u.).

“TCCAAAACGTCAATTAAAATGAAACCGGAGGGAGTATGTGCGGAGTCACCTAGTGCAG”: the binding signal is 13300 fluorescence intensity (a.u.).

Regarding “TTAACTAATAATAAAACTAATTGTATAAATGAGAGCTAATCGGAGTCACCTAGTGCAG”, the binding signal is 15900 fluorescence intensity (a.u.). Turning to “CGGCGAGATTGGCGACCACCGCCTTTCCCTCCTCCTACACCGGAGTCACCTAGTGCAG”, the binding signal was 9090 fluorescence intensity (a.u.). As for “ATTATGAAAATTTATTCAATTATAGATTTAATGAAACTATCGGAGTCACCTAGTGCAG”, the binding signal was 6020 fluorescence intensity (a.u.). Then “TCAAACGGATTGAGAGACTCTATAACTTACTTTCCTCTGACGGAGTCACCTAGTGCAG”, with 10400 fluorescence intensity (a.u.).
